# Source: PubChem BioAssay AID1030 (National Center for Advancing Translational Sciences (NCATS), 2008)
# In all, about 220,000 compounds went through this assay and about 16,000 (7.3%) were called active. The inconclusive results got no clear call from the source; some entries with a clear call stand among them for comparison. Calls come from the whole dose curve; as a rule, active = well fitted inhibition curve with a large enough effect (not every such curve was filed as active); inconclusive = small, poorly fitted or top-dose-only effect, or another doubt; inactive = no such curve, though single readings can be large or run the other way. No potency is given beside an inconclusive call; the fits are too rough.
# Molecular target: Aldehyde dehydrogenase 1A1 (Homo sapiens) (UniProt P00352)
# Assay: qHTS Assay for Inhibitors of Aldehyde Dehydrogenase 1 (ALDH1A1)
# Settings: Purified ALDH1A1, NADH fluorescence, propionaldehyde substrate; series mostly up to 75.3 µM
# Potency is the fitted concentration of half-maximal effect; tags give direction and shape of the fitted curve.
# UniProt P00352, sequence (P00352 whole entry, looked up): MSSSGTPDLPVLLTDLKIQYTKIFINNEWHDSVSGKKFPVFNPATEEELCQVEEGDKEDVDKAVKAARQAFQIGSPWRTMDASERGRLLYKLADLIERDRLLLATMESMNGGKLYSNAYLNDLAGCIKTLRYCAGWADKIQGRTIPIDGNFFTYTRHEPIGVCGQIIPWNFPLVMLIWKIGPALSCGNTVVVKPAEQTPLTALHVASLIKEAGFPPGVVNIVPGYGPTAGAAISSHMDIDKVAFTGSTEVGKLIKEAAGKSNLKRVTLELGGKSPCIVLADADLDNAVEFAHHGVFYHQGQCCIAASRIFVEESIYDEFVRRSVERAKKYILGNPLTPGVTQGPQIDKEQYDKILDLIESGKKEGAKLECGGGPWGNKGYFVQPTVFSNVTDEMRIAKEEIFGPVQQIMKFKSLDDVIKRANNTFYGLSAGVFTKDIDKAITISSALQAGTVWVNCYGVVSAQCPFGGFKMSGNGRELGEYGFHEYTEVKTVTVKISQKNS
row,Structure (SMILES),Potency
1,CCCCN(CC)CCCNC(=S)Nc1ccc2nc3n(c(=O)c2c1)CCCCC3,"inconclusive [inhibitor, full curve]"
2,Cc1nc2nc(SCC(=O)N3CCOCC3)nn2c(C)c1Cc1c(F)cccc1Cl,"inconclusive [inhibitor, single point]"
3,CCN(CC)CCCC(C)n1c(-c2ccccc2)nc2c(NC3CCCCC3)nc(C)nc21 (stereo unspecified),"inconclusive [inhibitor, partial curve]"
4,COc1cc2[nH]c(=O)n(CCC(=O)NCc3cccnc3)c(=O)c2cc1OC,"inconclusive [inhibitor, single point]"
5,CCCCCCc1nnc(N)s1,"inconclusive [inhibitor, single point]"
6,Cc1cc(C(F)F)n2ncc(C(=O)NCc3ccccc3F)c2n1,"inconclusive [inhibitor, partial curve, poor fit]"
7,CC(C)C1C(C#N)=C(N)Oc2n[nH]c(C(C)(C)C)c21 (stereo unspecified),inactive
8,COC(=O)c1ccc(CNC(=O)COC(=O)CC23CC4CC(CC(Br)(C4)C2)C3)cc1,active: 12.6 µM
9,Cc1ccc(S(=O)(=O)N2CCN(C(=O)CN3CCOCC3)C2)cc1,"inconclusive [inhibitor, single point]"
10,CCCCSc1nnc(-c2ccc(C)cc2)c2ccccc12,"inconclusive [inhibitor, single point]"
11,CNC(=O)c1ccc(-c2ccccc2)s1,"inconclusive [inhibitor, single point]"
12,COc1ccc(-c2cc(=O)[nH]c(=S)[nH]2)cc1,"inconclusive [inhibitor, single point]"
13,O=C1C2CCCCN2C(=O)N1CCCCN1CCN(c2ccc([N+](=O)[O-])cc2)CC1 (stereo unspecified),"inconclusive [inhibitor, single point]"
14,COC(=O)c1sc(NC(=O)CCCn2nc([N+](=O)[O-])cc2C)c(C(=O)OC)c1C,"inconclusive [inhibitor, partial curve]"
15,O=C(CCS(=O)(=O)c1cccc2nonc12)N1CC(=O)N(CCc2ccccc2)C(=O)C1,active: 28.2 µM
16,Clc1ccccc1Cn1nc(-c2ccccc2)nc1-c1ccccc1,"inconclusive [inhibitor, partial curve]"
17,CC(NC(=O)CCC(=O)N1CCN(S(=O)(=O)c2ccc(Cl)cc2)CC1)c1ccccc1 (stereo unspecified),"inconclusive [inhibitor, single point]"
18,Cn1c(=O)cc(SCC(=O)NCCC2=CCCCC2)c2cc(Cl)ccc21,"inconclusive [inhibitor, single point]"
19,CCOc1ccc2nc(N)sc2c1,"inconclusive [inhibitor, single point]"
20,CCOP(=O)(OCC)c1nc(-c2cccc3ccccc23)oc1NCc1ccc(OC)cc1,"inconclusive [inhibitor, partial curve]"
21,CCOC(=O)c1cc(-c2ccc(C)o2)nn1CCC#N,"inconclusive [inhibitor, single point]"
22,COc1cccc(C(=O)NC(=S)Nc2cccnc2)c1,"inconclusive [inhibitor, single point]"
23,Cc1ccc2nc(NC(=S)NC(=O)c3cccs3)sc2c1,"inconclusive [inhibitor, single point]"
24,COc1ccc(/C=N/NC(=O)c2[nH]c(C)c(C(=O)N/N=C/c3ccc(OC)cc3)c2C)cc1,inactive

row,Structure (SMILES),Potency
1,COc1ccccc1N1CCN(C(=O)C(=O)N/N=C/c2cccc(O)c2)CC1,"inconclusive [inhibitor, single point]"
2,Nc1nc2ncc(=O)[nH]c2c(=O)[nH]1,"inconclusive [inhibitor, partial curve]"
3,CCOC(=O)c1c(C)c(C(=O)N2CCN(c3ccc(F)cc3)CC2)c(C)n1C,inactive
4,Cc1cc(-n2c(C)cc(C(=O)CSc3nc(N)cc(=O)[nH]3)c2C)no1,inactive
5,O=C(NC1CCCCCC1)c1cccs1,"inconclusive [inhibitor, single point]"
6,CCOC(=O)c1c(C)[nH]c(C)c1C(=O)COC(=O)/C=C/c1ccc(Cl)cc1,inactive
7,COc1ccc(C(=O)Cn2nnc(-c3ccccc3-n3cnnn3)n2)cc1,"inconclusive [inhibitor, partial curve]"
8,CCOc1cc(NC(=S)NCCCN2CCOCC2)c(OCC)cc1NC(=O)c1cccc(F)c1,"inconclusive [inhibitor, single point]"
9,CCc1ccc2nc(NC(=O)c3ccc4c(=O)[nH]c(CN5CCOCC5)nc4c3)sc2c1,"inconclusive [inhibitor, single point]"
10,COCCn1c(C)cc(C(=O)COC(=O)c2c(C)nn(Cc3ccccc3)c2C)c1C,"inconclusive [inhibitor, single point]"
11,O=C(O)Cc1sc(-c2cccnc2)nc1-c1ccc(Br)cc1,"inconclusive [inhibitor, single point]"
12,CCCn1c(-c2ccc(F)cc2)nc2c(N3CCN(Cc4nc(OC)cc(OC)n4)CC3)nc(C)nc21,inactive
13,COC(=O)c1nn(-c2ccc3c(c2)OCO3)cc1O,"inconclusive [inhibitor, single point]"
14,COc1ccc2[nH]c(C(=O)Nc3ccccc3Cl)cc2c1,"inconclusive [inhibitor, single point]"
15,O=c1[nH][nH]cc1C=Nc1ccc(Cl)cc1Cl,inactive
16,O=S(=O)(NCCC1=CCCCC1)c1cccc(S(=O)(=O)N2CCOCC2)c1,active: 10 µM
17,Cc1ccc(NC(=O)c2cc(N3C(=O)C=CC3=O)ccc2N2CCOCC2)cc1,active: 0.355 µM
18,O=C(NC1CC1)C1CCCN(C(=O)Nc2ccc(F)cc2)C1 (stereo unspecified),inactive
19,Cc1ccc(S(=O)(=O)N2CCN(C(=O)C3COc4ccccc4O3)CC2)cc1C (stereo unspecified),"inconclusive [inhibitor, full curve]"
20,CC(=O)OCCCNc1cc(SCc2ccco2)c2nonc2c1[N+](=O)[O-],active: 7.94 µM
21,NS(=O)(=O)c1cc2c(cc1C(F)(F)F)N[C@H](Cc1ccccc1)NS2(=O)=O,inactive
22,O=C(COC(=O)c1ccc(S(=O)(=O)NCc2ccco2)cc1)Nc1ccccc1OC(F)F,inactive
23,Cc1ccc(C2=C/C(=C\c3cccnc3)C(=O)O2)cc1,"inconclusive [inhibitor, partial curve]"
24,CC(=O)c1cc(NC(=O)c2ccccc2)c(=O)oc1C,active: 20 µM

row,Structure (SMILES),Potency
1,CC(C)c1nc2oc3c(NCC4CCCO4)ncnc3c2c2c1CCC2 (stereo unspecified),"inconclusive [inhibitor, partial curve]"
2,Cc1cc(N2CCN(C)CC2)nc2ccc(NC(=S)N3CCN(c4ccccn4)CC3)cc12,active: 12.6 µM
3,Cc1nc2cnc(Oc3ccccc3)nc2n(C2CC2)c1=O,"inconclusive [inhibitor, single point]"
4,COc1ccc(-n2nc(C(=O)NCC(=O)NCC3CCCO3)c3ccccc3c2=O)c(OC)c1 (stereo unspecified),active: 12.6 µM
5,Cc1ccc(-n2c3c(c(=O)[nH]c2=S)C(C(F)(F)F)(C(F)(F)F)NC(=O)N3)cc1,inactive
6,COc1ccc(-c2c(-c3ccc(O)cc3O)n[nH]c2C)cc1OC,"inconclusive [inhibitor, full curve]"
7,CCn1c(CNc2ccc(OC)cc2)nnc1SCC(=O)c1ccc(OC)cc1,active: 0.199 µM
8,CCOc1ccc(-c2cc(C(=O)NCCCN3CCN(CC)CC3)c3ccccc3n2)cc1,"inconclusive [inhibitor, single point]"
9,C/C(=N\NC(=S)NCc1ccccc1)c1ccco1,active: 31.6 µM
10,O=C(OCn1ncc(Cl)c(Cl)c1=O)c1ccc(C(F)(F)F)cc1,active: 3.55 µM
11,COc1ccc(C2=NOC(C(=O)NC3CCCCC3)C2)cc1OC (stereo unspecified),"inconclusive [inhibitor, single point]"
12,CCOc1ccc(C(=S)N2CCCC2)cc1OC,inactive
13,CC(C)(c1cc(Br)c(O)c(Br)c1)c1cc(Br)c(O)c(Br)c1,inactive
14,CSc1sc(C(=O)O)c2c1C(=O)CCC2,"inconclusive [inhibitor, single point]"
15,CCOC(=O)c1sc(NC(=O)c2ccc(S(=O)(=O)N3CCCCC3)cc2)nc1-c1ccccc1,"inconclusive [inhibitor, single point]"
16,CCCOc1ccccc1NC(=O)CC1Nc2ccccc2NC1=O (stereo unspecified),"inconclusive [inhibitor, single point]"
17,CCOC(=O)c1ccc(COc2nc3ccccc3nc2-c2ccccc2NC(C)=O)o1,inactive
18,CCC(=O)N1CCCc2cc(S(=O)(=O)N3CCC(N4CCCCC4)CC3)ccc21,"inconclusive [inhibitor, single point]"
19,CC(CCc1ccccc1)NS(=O)(=O)c1ccccc1 (stereo unspecified),active: 10 µM
20,CCCCNC(=O)Cn1c2c(c(-c3ccccc3Cl)cc1=O)CCC2,"inconclusive [inhibitor, single point]"
21,COc1ccc(-c2nc(CS(=O)(=O)CC(=O)NCCc3cc(OC)ccc3OC)c(C)o2)cc1,"inconclusive [inhibitor, single point]"
22,Cc1ccc(S(=O)(=O)c2cnc(-c3ccccc3)nc2N2CCN(C)CC2)cc1,active: 2.24 µM
23,Cc1cc(C)c2nc(SCC(=O)Nc3ccc(S(=O)(=O)N4CCCC4)cc3)c(C)cc2c1,"inconclusive [inhibitor, single point]"
